Laboratory results as given in ChEMBL document CHEMBL2439986, “Hydroxyquinoline-derived compounds and analoguing of selective Mcl-1 inhibitors using a functional biomarker” (Bioorg Med Chem, 2013).
Converted amounts (≈) assume the structure as drawn. The source made the active and inactive calls. The calls are words filed in the database; no cut-off is given here.

Key:
[1] = tested on: SU-DHL10; assay: Induction of mitochondrial membrane depolarization in human SU-DHL10 cells by fluorescence assay; type: functional, cell-based
How it was run: (§1)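 BH3 profiling: 2.5 × 10⁴ cells per well with 100 µM BH3 peptide (Bim, Puma, Noxa, Bad), 1 µM JC-1 and 0.005% digitonin, in duplicate wells. Percent priming was derived from AUC relative to CCCP (positive) and DMSO (negative) controls. Two independent assays in triplicate (n=6).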

[2] = tested on: SU-DHL-6; assay: Induction of mitochondrial membrane depolarization in human SU-DHL6 cells by fluorescence assay; type: functional, cell-based; how it was run: as §1
[3] = target: CYP2C9 (Homo sapiens, UniProt P11712); assay: Inhibition of CYP2C9 (unknown origin) at 10 uM; type: ADME
UniProt P11712, sequence (P11712 whole entry): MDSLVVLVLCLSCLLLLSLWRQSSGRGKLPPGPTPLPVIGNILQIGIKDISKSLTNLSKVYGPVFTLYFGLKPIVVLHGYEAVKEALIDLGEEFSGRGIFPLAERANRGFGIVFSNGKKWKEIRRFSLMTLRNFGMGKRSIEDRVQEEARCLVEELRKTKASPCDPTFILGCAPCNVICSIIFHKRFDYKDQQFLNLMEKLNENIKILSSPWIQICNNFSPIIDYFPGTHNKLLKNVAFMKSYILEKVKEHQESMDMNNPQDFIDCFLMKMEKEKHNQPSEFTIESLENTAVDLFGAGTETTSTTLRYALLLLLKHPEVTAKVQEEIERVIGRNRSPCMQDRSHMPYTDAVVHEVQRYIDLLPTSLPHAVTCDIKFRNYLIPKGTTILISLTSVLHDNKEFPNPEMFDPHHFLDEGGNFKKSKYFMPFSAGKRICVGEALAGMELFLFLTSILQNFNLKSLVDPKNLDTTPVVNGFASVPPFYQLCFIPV

[4] = target: CYP3A4 (Homo sapiens, UniProt P08684); assay: Inhibition of CYP3A4 (unknown origin) at 10 uM; type: ADME
UniProt P08684, sequence (P08684 whole entry): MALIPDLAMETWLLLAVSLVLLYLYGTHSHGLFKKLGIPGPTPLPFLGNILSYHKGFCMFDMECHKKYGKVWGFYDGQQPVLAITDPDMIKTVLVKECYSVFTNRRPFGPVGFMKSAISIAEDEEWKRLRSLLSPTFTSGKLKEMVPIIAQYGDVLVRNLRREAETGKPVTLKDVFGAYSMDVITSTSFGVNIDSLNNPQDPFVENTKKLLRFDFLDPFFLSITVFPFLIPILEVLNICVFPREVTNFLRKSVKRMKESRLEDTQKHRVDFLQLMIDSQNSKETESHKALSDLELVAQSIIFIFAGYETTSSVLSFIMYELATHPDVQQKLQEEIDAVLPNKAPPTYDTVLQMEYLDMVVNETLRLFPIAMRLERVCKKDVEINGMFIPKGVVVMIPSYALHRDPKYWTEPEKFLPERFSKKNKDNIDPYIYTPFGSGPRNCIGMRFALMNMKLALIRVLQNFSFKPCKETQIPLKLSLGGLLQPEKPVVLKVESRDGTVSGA

[5] = tested on: NCI-H187; assay: Antiproliferative activity against human NCI-H187 cells assessed as cell viability after 48 hrs by PrestoBlue staining-based assay; type: functional; details: NCI-H187, 48 h
How it was run: (§2)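 Cells plated at 2.5 × 10⁵ cells/mL and treated with seven 2-fold dilutions of compound (top concentration 5 µM or 20 µM), with DMSO dilutions (top 0.2%) and cells-only and media-only wells as controls. Incubated for 48 h at 37°C, then read with PrestoBlue. Media background was subtracted and viability normalized to cells-only wells (100%) to give EC₅₀.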

[6] = tested on: Mcl1-1780; assay: Induction of apoptosis in mouse Mcl1-1780 cells at 0.125 to 0.5 uM after 24 hrs by DAPI staining-based fluorescence microscopy; type: functional, cell-based
How it was run: (§3)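 Seeded at 2 × 10⁵ cells/ml with DMSO (0.1%), navitoclax (5, 2.5, 1.25, 0.625 µM) or test compound (1000, 500, 250, 125 nM) for 24 h at 37°C. Fixed in 100% methanol on ice for 10 min and mounted with DAPI. At least 100 cells were scored as normal or apoptotic (pyknotic, fragmented) nuclei. DMSO was the negative control; navitoclax 5 µM on Bcl2-1863 was the positive control.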

[7] = tested on: A549; assay: Antiproliferative activity against human A549 cells assessed as cell viability after 48 hrs by PrestoBlue staining-based assay; type: functional; details: A549, 48 h; how it was run: as §2
[8] = tested on: TF-1; assay: Antiproliferative activity against human TF1 cells assessed as cell viability after 48 hrs by PrestoBlue staining-based assay; type: functional; details: TF-1, 48 h; how it was run: as §2
[9] = tested on: PANC-1; assay: Antiproliferative activity against human PANC1 cells assessed as cell viability after 48 hrs by PrestoBlue staining-based assay; type: functional; details: PANC-1, 48 h
[10] = tested on: Liver; assay: Half life in mouse liver microsomes; type: ADME, Microsome
[11] = tested on: SU-DHL-6; assay: Induction of mitochondrial membrane depolarization in human SU-DHL6 assessed as cytochrome c release at 20 uM after 2 hrs by DAPI staining-based fluorescence microscopy; type: functional
How it was run: (§4)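 Cells washed in PBS and resuspended at 2 × 10⁶ cells/ml, then exposed to compound (20 µM), 0.2% DMSO, or Bim/Puma peptides (100 µM) for 2 h at room temperature. Fixed in 4% formaldehyde, blocked and permeabilised (2% FBS, 0.5% Triton X-100), and stained with anti-cytochrome c-Alexa488 for 2 h at 4°C. Mounted with DAPI; at least 100 cells scored for cytochrome c loss. DMSO set as 0%; SUDHL-6 Bim response set as 100%.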

[12] = Antiproliferative activity against human SU-DHL10 cells assessed as cell viability after 48 hrs by PrestoBlue staining-based assay; type: functional; details: SU-DHL10, 48 h; how it was run: as §2
[13] = Antiproliferative activity against human NCI-H929 cells assessed as cell viability after 48 hrs by PrestoBlue staining-based assay; type: functional; details: NCI-H929, 48 h; how it was run: as §2
[14] = Antiproliferative activity against human ML2 cells assessed as cell viability after 48 hrs by PrestoBlue staining-based assay; type: functional; details: ML-2, 48 h; how it was run: as §2
[15] = tested on: Mcl1-1780; assay: Induction of apoptosis in mouse Mcl1-1780 cells after 16 hrs by Annexin V staining-based flow cytometry
[16] = Half life of the compound in PBS at 10 uM; type: physicochemical
[17] = target: T1, CYP1A2 (Homo sapiens, UniProt P05177); assay: Inhibition of CYP1A2 (unknown origin) at 10 uM; type: ADME
T1 sequence (P05177 whole entry): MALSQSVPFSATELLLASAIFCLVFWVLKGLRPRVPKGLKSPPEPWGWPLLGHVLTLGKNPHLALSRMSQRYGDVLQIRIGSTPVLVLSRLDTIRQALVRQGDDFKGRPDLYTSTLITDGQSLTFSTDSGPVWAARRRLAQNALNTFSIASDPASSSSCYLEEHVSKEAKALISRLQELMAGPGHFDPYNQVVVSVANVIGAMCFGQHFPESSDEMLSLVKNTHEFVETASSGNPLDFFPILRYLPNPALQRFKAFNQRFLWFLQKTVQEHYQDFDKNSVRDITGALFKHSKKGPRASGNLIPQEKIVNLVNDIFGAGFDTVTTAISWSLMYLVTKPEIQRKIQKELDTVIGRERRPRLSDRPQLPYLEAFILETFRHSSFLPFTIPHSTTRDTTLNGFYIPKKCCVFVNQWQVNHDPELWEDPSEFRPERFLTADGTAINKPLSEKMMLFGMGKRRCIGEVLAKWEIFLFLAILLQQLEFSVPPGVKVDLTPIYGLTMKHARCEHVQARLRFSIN

[18] = Solubility of the compound in phosphate buffer saline at pH 7.4; type: physicochemical
[19] = Antiproliferative activity against human SU-DHL6 cells assessed as cell viability after 48 hrs by PrestoBlue staining-based assay; type: functional; details: SU-DHL-6, 48 h; how it was run: as §2
[20] = tested on: Bcl2-1863; assay: Induction of mitochondrial membrane depolarization in mouse Bcl2-1863 cells assessed as cytochrome c release at 20 uM after 2 hrs by DAPI staining-based fluorescence microscopy; type: functional, cell-based; how it was run: as §4
[21] = target: CYP2D6 (Homo sapiens, UniProt P10635); assay: Inhibition of CYP2D6 (unknown origin) at 10 uM; type: ADME
UniProt P10635, sequence (P10635 whole entry): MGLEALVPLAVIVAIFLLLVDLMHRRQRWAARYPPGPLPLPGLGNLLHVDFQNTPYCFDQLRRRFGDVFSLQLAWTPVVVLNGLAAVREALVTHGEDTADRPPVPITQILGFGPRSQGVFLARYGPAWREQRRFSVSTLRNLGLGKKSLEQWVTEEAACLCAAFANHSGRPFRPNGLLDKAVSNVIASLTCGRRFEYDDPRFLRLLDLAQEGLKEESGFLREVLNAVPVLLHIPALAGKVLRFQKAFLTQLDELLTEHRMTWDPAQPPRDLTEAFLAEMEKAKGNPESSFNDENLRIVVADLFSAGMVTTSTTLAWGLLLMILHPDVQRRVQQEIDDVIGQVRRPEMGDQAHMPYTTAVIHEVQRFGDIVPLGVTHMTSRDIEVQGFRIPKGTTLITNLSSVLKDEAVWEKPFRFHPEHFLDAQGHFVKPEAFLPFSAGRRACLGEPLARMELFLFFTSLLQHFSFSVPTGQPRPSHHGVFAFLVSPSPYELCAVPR

[22] = tested on: Liver microsomes; assay: Half life in human liver microsomes; type: ADME, Microsome
[23] = tested on: Mcl1-1780; assay: Induction of apoptosis in mouse Mcl1-1780 cells at 0.625 to 2.5 uM after 24 hrs by DAPI staining-based fluorescence microscopy; type: functional, cell-based; how it was run: as §3
[24] = tested on: Bcl2-1863; assay: Induction of apoptosis in mouse Bcl2-1863 cells at 0.125 to 0.5 uM after 24 hrs by DAPI staining-based fluorescence microscopy; type: functional, cell-based; how it was run: as §3
[25] = tested on: A-375; assay: Antiproliferative activity against human A375 cells assessed as cell viability after 48 hrs by PrestoBlue staining-based assay; type: functional; details: A-375, 48 h; how it was run: as §2
[26] = tested on: Bcl2-1863; assay: Induction of apoptosis in mouse Bcl2-1863 cells after 16 hrs by Annexin V staining-based flow cytometry
[27] = Antiproliferative activity against mouse Mcl1-1780 cells assessed as cell viability after 48 hrs by PrestoBlue staining-based assay; type: functional; details: Mcl1-1780, 48 h; how it was run: as §2
[28] = tested on: MOLM-13; assay: Antiproliferative activity against human MOLM13 cells assessed as cell viability after 48 hrs by PrestoBlue staining-based assay; type: functional; details: MOLM-13, 48 h
[29] = tested on: Bcl2-1863; assay: Induction of apoptosis in mouse Bcl2-1863 cells at 0.625 to 2.5 uM after 24 hrs by DAPI staining-based fluorescence microscopy; type: functional, cell-based; how it was run: as §3
[30] = tested on: HL-60; assay: Antiproliferative activity against human HL60 cells assessed as cell viability after 48 hrs by PrestoBlue staining-based assay; type: functional; details: HL-60, 48 h; how it was run: as §2
[31] = Antiproliferative activity against mouse Bcl2-1863 cells assessed as cell viability after 48 hrs by PrestoBlue staining-based assay; type: functional; details: Bcl2-1863, 48 h; how it was run: as §2
[32] = tested on: Mcl1-1780; assay: Induction of mitochondrial membrane depolarization in mouse Mcl1-1780 cells assessed as cytochrome c release at 20 uM after 2 hrs by DAPI staining-based fluorescence microscopy; type: functional, cell-based; how it was run: as §4
[33] = Solubility of the compound in DMEM in presence of 10% FBS; type: physicochemical; details: DMEM with 10% FBS
[34] = target: Bcl-2-like protein 1 (Homo sapiens) (UniProt Q07817); details: 100 uM
UniProt Q07817, sequence (Q07817 whole entry): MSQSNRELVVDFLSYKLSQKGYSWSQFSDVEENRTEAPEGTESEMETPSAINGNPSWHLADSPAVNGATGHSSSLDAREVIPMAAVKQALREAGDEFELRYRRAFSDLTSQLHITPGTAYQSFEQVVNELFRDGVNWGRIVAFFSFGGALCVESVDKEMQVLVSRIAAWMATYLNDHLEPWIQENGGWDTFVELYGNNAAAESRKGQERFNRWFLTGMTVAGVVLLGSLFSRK

## CC[C@H](C)[C@H](NC(=O)[C@H](CCC(=O)O)NC(=O)[C@H](CCCNC(=N)N)NC(=O)[C@H](C)NC(=O)[C@H](Cc1c[nH]c2ccccc12)NC(=O)[C@H](CCC(N)=O)NC(=O)[C@H](CCC(=O)O)NC(=O)[C@@H](N)CCC(=O)O)C(=O)NCC(=O)N[C@@H](C)C(=O)N[C@@H](CCC(N)=O)C(=O)N[C@@H](CC(C)C)C(=O)N[C@@H](CCCNC(=N)N)C(=O)N[C@@H](CCCNC(=N)N)C(=O)N[C@@H](CCSC)C(=O)N[C@@H](C)C(=O)N[C@@H](CC(=O)O)C(=O)N[C@@H](CC(=O)O)C(=O)N[C@@H](CC(C)C)C(=O)N[C@@H](CC(N)=O)C(=O)N[C@@H](C)C(=O)N[C@@H](CCC(N)=O)C(=O)N[C@@H](Cc1ccc(O)cc1)C(=O)N[C@@H](CCC(=O)O)C(=O)N[C@@H](CCCNC(=N)N)C(=O)O
[1]
  Activity: Active
[2]
  Activity: Active

## CCN1CCN(C(c2ccc(C(F)(F)F)cc2)c2cc(Cl)c3cccnc3c2O)CC1 (stereo not drawn)
[3]
  inhibition at 10 µM: 24%
[4]
  inhibition at 10 µM: 14%
[5]
  EC50: 9.5 µM
[6]
  Activity: Active
[7]
  EC50: 14.1 µM
[8]
  EC50: 4.8 µM
[9]
  EC50: 14.5 µM
[10]
  t1/2: 0.667 h
[11]
  Activity: Active
[12]
  EC50: 25 µM
[13]
  EC50: 1.6 µM
[14]
  EC50: 5.2 µM
[15]
  Activity: Dose-dependent effect
[16]
  half-life at 10 µM: 10 h
[17]
  inhibition at 10 µM: 29%
[18]
  solubility: 2.7 µM (≈ 1.21 µg/mL)
[19]
  EC50: 3.3 µM
[20]
  Activity: Active
[21]
  inhibition at 10 µM: 43%
[22]
  t1/2: 0.917 h
[23]
  Activity: Active
[24]
  Activity: Active
[25]
  EC50: 7.1 µM
[26]
  Activity: Dose-dependent effect
[27]
  EC50: 0.3 µM
[28]
  EC50: 7 µM
[29]
  Activity: Active
[30]
  EC50: 6.3 µM
[31]
  EC50: 1.1 µM
[32]
  Activity: Active
[33]
  solubility: 20 µM

## CSCC[C@H](NC(=O)[C@H](CCCNC(=N)N)NC(=O)[C@H](CCCNC(=N)N)NC(=O)[C@H](CC(C)C)NC(=O)[C@H](CCC(=O)O)NC(=O)[C@H](CCCNC(=N)N)NC(=O)CNC(=O)[C@H](Cc1ccc(O)cc1)NC(=O)[C@H](CCCNC(=N)N)NC(=O)[C@H](CCC(N)=O)NC(=O)[C@H](C)NC(=O)[C@H](C)NC(=O)[C@H](Cc1c[nH]c2ccccc12)NC(=O)[C@@H](N)CC(C)C)C(=O)N[C@@H](CO)C(=O)N[C@@H](CC(=O)O)C(=O)N[C@@H](CCC(=O)O)C(=O)N[C@@H](Cc1ccccc1)C(=O)N[C@@H](CCC(=O)O)C(=O)NCC(=O)N[C@@H](CO)C(=O)N[C@@H](Cc1ccccc1)C(=O)N[C@@H](CCCCN)C(=O)NCC(=O)N[C@@H](CC(C)C)C(=O)O
[1]
  Activity: Active
[2]
  Activity: Active

## H-PAELEVECATQLRRFGDKLNFRQKLL-OH
[1]
  Activity: Active
[2]
  Activity: Active

## O=C(O)COc1ccccc1C(Nc1ccccn1)c1cc(Cl)c2cccnc2c1O (stereo not drawn)
[34]
  inhibition: inactive
